In patent US20160271188A1, “PROBIOTIC AND PREBIOTIC COMPOSITIONS, AND METHODS OF USE THEREOF FOR TREATMENT OF GASTROINTESTINAL DISORDERS” (Epiva Biosciences, Inc., priority 2014, published 2016):

Tested on: C57BL/6 mice
Conditions: mouse, in vivo

## CCN1CCN(c2cc3c(cc2F)c(=O)c(C(=O)O)cn3C2CC2)CC1 [enrofloxacin, reference compound]
  serum endotoxin levels after antibiotic treatment, later time: return to baseline by day 14
